Like-named read-outs stand apart in the source and are kept apart here.
Experiments:
[1] = tested on: HAP1 MTAP-deleted cell line; experiment: SDMA in-cell western assay, HAP1 MTAP-deleted; settings: for IC50 / IC90: Homo sapiens; for Hap1 MTAP intact/deleted ratio: IC50 ratio between HAP1 MTAP-intact and HAP1 MTAP-deleted cell line
[2] = tested on: HAP1 MTAP-intact cell line; experiment: SDMA in-cell western assay, HAP1 MTAP-intact; settings: Homo sapiens
MTAP-deleted cell line = experiment: viability assay for the MTAP-deleted cell line; format: cell-based; settings: Homo sapiens, HAP1, viability assay
[3] = HAP1, read-out: Hap1 MTAP deleted IC50, SDMA in-cell western, HAP1 MTAP-deleted cell line
[4] = HAP1, read-out: Hap1 MTAP deleted IC90, SDMA in-cell western, HAP1 MTAP-deleted cell line
[5] = HAP1, read-out: Hap1 MTAP intact IC50, SDMA in-cell western, HAP1 MTAP-intact cell line
[6] = HAP1, read-out: Hap1 MTAP deleted IC50, SDMA in-cell western assay, HAP1 MTAP-deleted cell line
[7] = HAP1, read-out: Hap1 MTAP deleted IC90, SDMA in-cell western assay, HAP1 MTAP-deleted cell line
[8] = HAP1, read-out: Hap1 MTAP intact IC50, SDMA in-cell western assay, HAP1 MTAP-intact cell line

SMILES | IC50 [1, 3] [µM] | IC90 [1, 4] [µM] | IC50 [2, 5] [µM] | IC50 [1, 6] [µM] | IC90 [1, 7] [µM] | IC50 [2, 8] [µM] | Hap1 MTAP intact/deleted ratio ([1]; SDMA in-cell western) | IC50 (MTAP-deleted cell line) [µM] | Hap1 MTAP intact/deleted ratio ([1]; SDMA in-cell western assay)
C[C@H]1CC[C@H](c2ccc3sc(C[C@H](C)N4CCCC4)nc3c2)N(C(=O)C(=O)Nc2cncc3cn[nH]c23)C1 [Compound 136, 2-((2R,5S)-5-methyl-2-(2-(2-(pyrrolidin-1-yl)propyl)benzo[d]thiazol-5-yl)piperidin-1-yl)-2-oxo-N-(1H-pyrazolo[4,3-c]pyridin-7-yl)acetamide] | < 0.005 | < 0.075 | > 0.05 | – | – | – | A (“A” indicates an IC50 ratio greater than or equal to 30 fold) | < 0.1 | –
C[C@H]1CC[C@H](c2ccc(N3CCN(C)CC3)cc2)N(C(=O)C(=O)Nc2cnc(N)c3c2cnn3C)C1 [Compound 191, N-(7-Amino-1-methyl-pyrazolo[3,4-c]pyridin-4-yl)-2-oxo-2-[(2R,5S)-5-methyl-2-[4-(4-methylpiperazin-1-yl)phenyl]-1-piperidyl]acetamide] | < 0.005 | < 0.075 | > 0.05 | – | – | – | B (“B” indicates an IC50 ratio greater than or equal to 15 fold but lower than 30 fold) | < 0.1 | –
C[C@H]1CC[C@H]([C@@H]2CCCCO2)N(C(=O)C(=O)Nc2cnc(N)c3cn[nH]c23)C1 [Compound 222] | – | – | – | < 0.005 | < 0.075 | > 0.05 | – | < 0.1 | A (“A” indicates an IC50 ratio greater than or equal to 30 fold)
CCN(C)c1cccc([C@H]2CCCCN2C(=O)C(=O)Nc2cnc(N)c3cn[nH]c23)c1 [Compound 267] | – | – | – | < 0.005 | < 0.075 | > 0.05 | – | < 0.1 | A (“A” indicates an IC50 ratio greater than or equal to 30 fold)
C[C@H]1CC[C@H](c2ccc3sc(CCCN(C)C)nc3c2)N(C(=O)C(=O)Nc2cnc(N)c3cn[nH]c23)C1 [Compound 278, N-(4-Amino-1H-pyrazolo[4,3-c]pyridin-7-yl)-2-oxo-2-[(2R,5S)-2-[2-[3-(dimethylamino)propyl]-1,3-benzothiazol-5-yl]-5-methyl-1-piperidyl]acetamide] | – | – | – | < 0.005 | < 0.075 | 0.005 to 0.05 | – | < 0.1 | C (“C” indicates an IC50 ratio of less than 15 fold)
CC[C@H]1CC[C@H](C)CN1C(=O)C(=O)Nc1cnc(N)c2cnn(C)c12 [Compound 281, N-(4-Amino-1-methyl-pyrazolo[4,3-c]pyridin-7-yl)-2-oxo-2-[(2S,5S)-2-ethyl-5-methyl-1-piperidyl]acetamide] | – | – | – | > 0.05 | > 0.125 | > 0.05 | – | > 1 | C (“C” indicates an IC50 ratio of less than 15 fold)

Further lines, with some results ahead:

IC50 [1, 3] [µM] | IC90 [1, 4] [µM] | IC50 [2, 5] [µM] | IC50 [1, 6] [µM] | IC90 [1, 7] [µM] | IC50 [2, 8] [µM] | SMILES | Hap1 MTAP intact/deleted ratio ([1]; SDMA in-cell western) | IC50 (MTAP-deleted cell line) [µM] | Hap1 MTAP intact/deleted ratio ([1]; SDMA in-cell western assay)
< 0.005 | < 0.075 | > 0.05 | – | – | – | C[C@H]1CC[C@H](c2ccc(CN(C)C)cc2)N(C(=O)C(=O)Nc2cnc(N)c3cn[nH]c23)C1 [Compound 154, N-(4-amino-1H-pyrazolo[4,3-c]pyridin-7-yl)-2-((2R,5S)-2-(4-((dimethylamino)methyl)phenyl)-5-methylpiperidin-1-yl)-2-oxoacetamide] | B (“B” indicates an IC50 ratio greater than or equal to 15 fold but lower than 30 fold) | < 0.1 | –
< 0.005 | < 0.075 | > 0.05 | – | – | – | C[C@H]1CC[C@H](c2cccc(CN(C)C)c2)N(C(=O)C(=O)Nc2cnc(N)c3cn[nH]c23)C1 [Compound 158, N-(4-amino-1H-pyrazolo[4,3-c]pyridin-7-yl)-2-((2R,5S)-2-(3-((dimethylamino)methyl)phenyl)-5-methylpiperidin-1-yl)-2-oxoacetamide] | B (“B” indicates an IC50 ratio greater than or equal to 15 fold but lower than 30 fold) | < 0.1 | –
< 0.005 | < 0.075 | > 0.05 | – | – | – | Cc1cc([C@H]2CC[C@H](C)CN2C(=O)C(=O)Nc2cnc(N)c3cn[nH]c23)cs1 [Compound 169] | B (“B” indicates an IC50 ratio greater than or equal to 15 fold but lower than 30 fold) | < 0.1 | –
< 0.005 | < 0.075 | > 0.05 | – | – | – | Cc1ccc([C@H]2CC[C@H](C)CN2C(=O)C(=O)Nc2cnc(N)c3cn[nH]c23)cn1 [Compound 172, N-(4-amino-1H-pyrazolo[4,3-c]pyridin-7-yl)-2-oxo-2-[(2R,5S)-5-methyl-2-(6-methyl-3-pyridyl)-1-piperidyl]acetamide] | A (“A” indicates an IC50 ratio greater than or equal to 30 fold) | < 0.1 | –
0.005 to 0.05 | > 0.125 | > 0.05 | – | – | – | Cc1ncc([C@H]2CC[C@H](C)CN2C(=O)C(=O)Nc2cnc(N)c3cn[nH]c23)o1 [Compound 177] | C (“C” indicates an IC50 ratio of less than 15 fold) | 0.1 to 1 | –
< 0.005 | < 0.075 | 0.005 to 0.05 | – | – | – | C[C@H]1CC[C@H](c2cccc(C#N)c2)N(C(=O)C(=O)Nc2cnc(N)c3cn[nH]c23)C1 [Compound 183, N-(4-amino-1H-pyrazolo[4,3-c]pyridin-7-yl)-2-((2R,5S)-2-(3-cyanophenyl)-5-methylpiperidin-1-yl)-2-oxoacetamide] | B (“B” indicates an IC50 ratio greater than or equal to 15 fold but lower than 30 fold) | < 0.1 | –
< 0.005 | < 0.075 | 0.005 to 0.05 | – | – | – | C[C@H]1CC[C@H](c2ccc3[nH]ncc3c2)N(C(=O)C(=O)Nc2cnc(N)c3cn[nH]c23)C1 [Compound 190, 2-((2R,5S)-2-(1H-indazol-5-yl)-5-methylpiperidin-1-yl)-N-(4-amino-2H-pyrazolo[4,3-c]pyridin-7-yl)-2-oxoacetamide] | C (“C” indicates an IC50 ratio of less than 15 fold) | < 0.1 | –
– | – | – | < 0.005 | < 0.075 | 0.005 to 0.05 | C[C@H]1CC[C@H](c2ccn(C)n2)N(C(=O)C(=O)Nc2cnc(N)c3cn[nH]c23)C1 [Compound 201, N-(4-Amino-1H-pyrazolo[4,3-c]pyridin-7-yl)-2-oxo-2-[(2R,5S)-5-methyl-2-(1-methylpyrazol-3-yl)-1-piperidyl]acetamide] | – | < 0.1 | C (“C” indicates an IC50 ratio of less than 15 fold)
– | – | – | < 0.005 | < 0.075 | > 0.05 | C[C@H]1CC[C@H](c2cncc(F)c2)N(C(=O)C(=O)Nc2cnc(N)c3cn[nH]c23)C1 [Compound 243, N-(4-Amino-1H-pyrazolo[4,3-c]pyridin-7-yl)-2-oxo-2-[(2R,5S)-2-(5-fluoro-3-pyridyl)-5-methyl-1-piperidyl]acetamide] | – | < 0.1 | A (“A” indicates an IC50 ratio greater than or equal to 30 fold)
